From PubChem BioAssay AID504832 (National Center for Advancing Translational Sciences (NCATS), 2011)
Several values for one entry are separate records, joined by “and”; a condition that tells them apart may be missing. Equal entries are not always repeated. About 18,000 (5.8%) of roughly 310,000 compounds were called active. Inconclusive results, whose numbers are uncertain, are shown with a selection of clear calls. Calls come from the whole dose curve; as a rule, active = well fitted inhibition curve with a large enough effect; inconclusive = small, poorly fitted or top-dose-only effect, or another doubt; inactive = no such curve, though single readings can be large or run the other way. No potency is given beside an inconclusive call; the fits are too rough.

Test: Primary qHTS for delayed death inhibitors of the malarial parasite plastid, 48 hour incubation
Conditions: P. falciparum luciferase growth in erythrocytes; series mostly up to 28.7 µM; activity change, negative = inhibition: at the top concentration
In short: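 Here the parasites carry a stable luciferase gene and grow inside erythrocytes in Albumax-based RPMI medium with compound for one erythrocytic cycle. Activity is scored as loss of luminescent signal.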
% is set by controls: 0 for no effect and ±100 for the full control effect; potency is the fitted concentration of half-maximal effect; tags give direction and shape of the fitted curve.

Row | Structure (SMILES) | Potency | activity change, negative = inhibition
1 | Cc1ccc(CN2CCN(Cc3cn(C(C)C)c4ccccc34)CC2CCO)o1 (stereo unspecified) | inconclusive [inhibitor, single point] | –
2 | CCCCCCSc1ccc([C@@H]2[C@H]3C(=O)N(C)C(=O)[C@H]3[C@]3(C(=O)OC)CCCCN23)cc1 | active: 13.1 µM | –
3 | O=C(NCCN1CCCC1)c1ccc2c(=O)n(CCc3ccccc3)c(=O)[nH]c2c1 | inconclusive [inhibitor, partial curve] | –
4 | CCC(C)Sc1nc2c(c(=O)[nH]c(=O)n2C)n1CC(O)COc1cccc2ccccc12 (stereo unspecified) | active: 10.4 µM | –
5 | CCOC(=O)C1CCN(C(=O)Cn2c(=O)oc3cc(S(=O)(=O)N4CCCC4)ccc32)CC1 | – | inactive: -23.1%
6 | CC(=O)c1ccc(OCCCC(=O)Nc2ccc(C)c(S(=O)(=O)N3CCCCC3)c2)cc1 | inconclusive [inhibitor, single point] | –
7 | O=C1Nc2ccccc2/C1=C/c1nc2ccccc2c(=O)n1-c1ccc(O)cc1 | inconclusive [inhibitor, single point] | –
8 | Cc1cc(NC(=O)Nc2ccccc2[N+](=O)[O-])n(C)n1 | – | inactive: -6.73%
9 | COc1cc(NS(=O)(=O)c2ccc(NC(=S)NC(=O)c3ccco3)cc2)nc(OC)n1 | – | inactive: 76.2%
10 | NC(=O)[C@H]1CC2(CC(c3cccc(NC(=O)COc4ccc(Cl)cc4)c3)=NO2)CN1C(=O)c1ccc(Cl)cc1 (stereo partly specified) | active: 13.1 µM | –
11 | O=C(COC(=O)C1CCN(c2ccc(C(F)(F)F)cn2)CC1)NCc1cccc(Cl)c1 | inconclusive [inhibitor, single point] | –
12 | c1ccc2c(c1)Nc1ccccc1S2 | active: 14.7 µM and active: 12 µM | –
13 | NC(=O)Nc1ccc(C(=O)OCC(=O)N2CCCC2=O)cc1 | – | inactive: -4.76%
14 | CCCC(C(=O)NCc1ccco1)N(C(=O)CNS(=O)(=O)c1ccccc1)c1ccccc1OC (stereo unspecified) | active: 10.4 µM | –
15 | C/C(=N\NC(=O)c1ccc(CSc2nc(C)cc(C)n2)cc1)C1CCCCC1 | inconclusive [inhibitor, partial curve] | –
16 | O=C1N/C(=N/N=C/c2ccccc2O)SC1Cc1ccc(F)cc1 (stereo unspecified) | inconclusive [inhibitor, single point] | –
17 | Cc1ccc(C)c(N2CCN(C(=O)Cc3cn(C)c4ccccc34)CC2)c1 | inconclusive [inhibitor, partial curve] | –
18 | COc1ccc(-n2nc(C(=O)NCC(=O)Nc3cc(OC)c(OC)c(OC)c3)c3ccccc3c2=O)cc1 | active: 9.28 µM | –

Row | Structure (SMILES) | Potency | activity change, negative = inhibition
19 | O=C(c1ccccc1C(=O)N1CCN(c2ccccc2F)CC1)N1CCN(c2ccccc2F)CC1 | inconclusive [inhibitor, single point] | –
20 | CCCC1Cc2nc(N3CCCCC3)c(C#N)cc2CO1 (stereo unspecified) | inconclusive [inhibitor, single point] | –
21 | COc1ccc(N2CC(C(=O)NCc3ccccc3)CC2=O)cc1 (stereo unspecified) | – | inactive: 10.2%
22 | CCCCC(=O)NC(=S)NNC(=O)CCc1ccccc1 | inconclusive [inhibitor, single point] | –
23 | COC(=O)CNC(=O)c1cc(-c2ccncc2)nc2c(C)c(Cl)ccc12 | inconclusive [inhibitor, single point] | –
24 | CCC(C)c1ccc(NC(=S)NCCn2cc(Br)cn2)cc1 (stereo unspecified) | inconclusive [inhibitor, single point] | –
25 | Cc1cc2c(C)cc(=O)oc2c2c1NCCC2 | – | inactive: -2.83%
26 | Cc1cc(C)c2ccc(N)nc2c1O | active: 4.15 µM | –
27 | CCc1cccc(N=c2c([N+](=O)[O-])nn(-c3ccc4c(c3)OCCO4)n2O)c1 | – | inactive: 46.4%
28 | COc1ccccc1/C=C(/CC(=O)NCc1ccccc1)c1nc2ccccc2s1 | inconclusive [inhibitor, single point] | –
29 | O=C(CN1CCC(C(O)(c2ccccc2)c2ccccc2)CC1)Nc1cc(Cl)ccc1Cl | inconclusive [inhibitor, single point] | –
30 | CCCOC(=O)NC(CC)COC(=O)Nc1cccc(C)c1C (stereo unspecified) | – | inactive: 6.36%
31 | O=[N+]([O-])c1ccc(Nc2ccccc2O)c2nonc12 | inconclusive [inhibitor, full curve] | –
32 | CCc1ccc(OCC(=O)Nc2ccc(-c3nc4ccccc4o3)c(O)c2)cc1 | – | inactive: 50.6%
33 | COc1ccccc1N(C(=O)c1snc(C(N)=O)c1N)C(C(=O)NCc1ccccc1)c1ccc(O)cc1 (stereo unspecified) | inconclusive [inhibitor, partial curve] | –
34 | NC1CCN(c2c(F)cc3c(=O)c(C(=O)O)cn(C4CC4)c3c2Cl)C1 (stereo unspecified) | active: 5.86 µM | –
35 | COc1ccc(S(=O)(=O)N2CCCCCC2)cc1C(=O)Nc1cccc(C)n1 | inconclusive [inhibitor, single point] | –
36 | O=S(=O)(c1ccc2nc(Cc3cccc(C(F)(F)F)c3)[nH]c2c1)N1CCOCC1 | inconclusive [inhibitor, partial curve, poor fit] | –
